This is an account of results in PMC6602471.

Some of the results follow. At the low end of the ranking, values are background and their order means little.

This experiment deals with T1, ELK1 (UniProt P19419).
T1 sequence: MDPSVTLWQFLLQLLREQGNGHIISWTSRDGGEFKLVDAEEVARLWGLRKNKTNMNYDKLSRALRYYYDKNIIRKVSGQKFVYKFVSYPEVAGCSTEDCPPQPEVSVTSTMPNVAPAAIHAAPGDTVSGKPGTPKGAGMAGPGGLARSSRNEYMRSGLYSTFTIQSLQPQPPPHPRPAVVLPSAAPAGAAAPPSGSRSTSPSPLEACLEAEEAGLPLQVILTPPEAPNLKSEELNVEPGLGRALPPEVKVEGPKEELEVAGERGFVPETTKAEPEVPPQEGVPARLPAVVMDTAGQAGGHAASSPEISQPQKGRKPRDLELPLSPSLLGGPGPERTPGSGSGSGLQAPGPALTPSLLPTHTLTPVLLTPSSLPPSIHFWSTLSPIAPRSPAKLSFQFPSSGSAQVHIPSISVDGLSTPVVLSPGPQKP
Description: custom PBM. The following applies: custom protein-binding microarray; buffer, salt, pH and temperature not stated; high values mean tight binding; double strand, one strand shown.
Take “CTGGGACTTGACCCAACTCTGCCACTTGGGTCGTTTGTCTTGATTCGCTTGACGCTGCTG”: the binding signal (log fluorescence intensity) came to 8.73. The same measure for “CACAATTTTTACTGTAATGTAGCACGCGTAACTCCTGTCTTGATTCGCTTGACGCTGCTG”: 8.89. For the sequence “TACTGACTTATATATGCGAATGCACATGAAGAGACCGTCTTGATTCGCTTGACGCTGCTG”, the binding signal (log fluorescence intensity) was found to be 8.94.

Consider “GTGTATAGGATCCCATCCAACACACTTGTTAAAATGGTCTTGATTCGCTTGACGCTGCTG”, for which the binding signal (log fluorescence intensity) came to 8.84. As to “TACTGACTTATATATGCGAATGCACATGAATCGACCGTCTTGATTCGCTTGACGCTGCTG”, the binding signal (log fluorescence intensity) was 8.81. For the sequence “GATTAATTTCTGCCCTTATCCGCACGTGCCATAACAGTCTTGATTCGCTTGACGCTGCTG”, the binding signal (log fluorescence intensity) is 8.85.

As to “GCGTATAGGATCCCATCCAACACACGTGTTAAAATGGTCTTGATTCGCTTGACGCTGCTG”, the binding signal (log fluorescence intensity) came to 8.84. The same measure for “CTGGGACTTGACCCAACTCTGCCACGTGGGTCATTTGTCTTGATTCGCTTGACGCTGCTG”: 8.85; for “CACAATTTTTACAGTAATGTAGCACCCGTAACTCCTGTCTTGATTCGCTTGACGCTGCTG”: 8.81.

In the case of “TACTGACTTAAATATGCGAATGCACATGAATAGACCGTCTTGATTCGCTTGACGCTGCTG”, the binding signal (log fluorescence intensity) came to 8.82. As for “GTGGGACTTGACCCAACTCTGCCACGTGGGTCGTTTGTCTTGATTCGCTTGACGCTGCTG”, the figure is 8.97; as for “GCTGCTGCGGTGCATACCCCACCGGATGTGACCACGGTCTTGATTCGCTTGACGCTGCTG”, 10.3. As for “TAATGACTTATATATGCGAATGCACATGAATAGACCGTCTTGATTCGCTTGACGCTGCTG”, the figure is 8.82. As for “GATTAATTTCTGCCCTTATTCGCACGTGCCAGAACAGTCTTGATTCGCTTGACGCTGCTG”, the figure is 8.91; as for “CGGAAGTGTCGTAAACGTCGGATATCCGGTTCATCTGTCTTGATTCGCTTGACGCTGCTG”, 12.6. Turning to “CAGCATAGGACTTCTTCCCTGACGCAATTGATAACCGTCTTGATTCGCTTGACGCTGCTG”, the binding signal (log fluorescence intensity) turned out to be 8.89. “GCTGCTGCGGTGCATACCCCACCGGATGTGAACCCGGTCTTGATTCGCTTGACGCTGCTG”: the binding signal (log fluorescence intensity) amounted to 10.1. The same measure for “TCCGGCTACCAGCTCCACCCACTTCAAGCCTTGTAGGTCTTGATTCGCTTGACGCTGCTG”: 9.03; for “CGAAAAAGGCCCAGGGTAACACCGGAAGTGGGCTTAGTCTTGATTCGCTTGACGCTGCTG”: 11. As for “CTGGGACGTGACCCAACTCTGCCACGTGGGTCGTTTGTCTTGATTCGCTTGACGCTGCTG”, the figure is 8.88. Turning to “TAAAGGGAAGACGGTAGTGGTAGTTCCGGGTATTAAGTCTTGATTCGCTTGACGCTGCTG”, the binding signal (log fluorescence intensity) came out at 11.8.

As to “CTGGGACTTGACCCAACACTGCCACGTGGGTCGTTTGTCTTGATTCGCTTGACGCTGCTG”, the binding signal (log fluorescence intensity) was determined as 8.88. The same measure for “GCCGGCTACCAGCTCCACCCACTTCAGGCCTTGTAGGTCTTGATTCGCTTGACGCTGCTG”: 8.83; for “CACAATTTTTACAGTAATGTAGCACACGTAACTCCTGTCTTGATTCGCTTGACGCTGCTG”: 8.89; for “GGAAAAAGGCCCAGGGCAACACCGGAAGTGGGCTTAGTCTTGATTCGCTTGACGCTGCTG”: 10.9. In the case of “TCCGGCTACCAGCTCCACCCACTTCAGCCCTTGTAGGTCTTGATTCGCTTGACGCTGCTG”, the binding signal (log fluorescence intensity) is 8.94. As for “CACAATTTTTACAGTAATGTAGCACGCGTAACTCCCGTCTTGATTCGCTTGACGCTGCTG”, the figure is 8.92; as for “TCCGGCTACCAGCTCCACCCACGTCAGGCCTTGTAGGTCTTGATTCGCTTGACGCTGCTG”, 8.9. As for “CAGCATAGGACTTCTTACCTGAAGCAATTGATAACCGTCTTGATTCGCTTGACGCTGCTG”, the figure is 8.85; as for “GGAAAAAGGCCCAGGGTAACACCGGGAGTGGGCTTAGTCTTGATTCGCTTGACGCTGCTG”, 8.91; as for “TCCGGCTACCAGCTCCACCCACTCCAGGCCTTGTAGGTCTTGATTCGCTTGACGCTGCTG”, 8.71. As for “GCTGCTGCGGTGCATACCCCACTGGATGTGACCCCGGTCTTGATTCGCTTGACGCTGCTG”, the figure is 8.92. As for “GCTGCTGCGGTGCACACCCCACCGGATGTGACCCCGGTCTTGATTCGCTTGACGCTGCTG”, the binding signal (log fluorescence intensity) came out at 10.3. The same measure for “CTGGGACTTGACCGAACTCTGCCACGTGGGTCGTTTGTCTTGATTCGCTTGACGCTGCTG”: 8.85; for “GGAAAAAGGCCCAGGGTAACTCCGGAAGTGGGCTTAGTCTTGATTCGCTTGACGCTGCTG”: 10.4.

For the sequence “CGGAAGTGTCGTAAACGTCGGATGTCCGGTTCTTCTGTCTTGATTCGCTTGACGCTGCTG”, the binding signal (log fluorescence intensity) was 11.7. As for “GGAAAAAGGGCCAGGGTAACACCGGAAGTGGGCTTAGTCTTGATTCGCTTGACGCTGCTG”, the figure is 10.8; as for “TCAAGGGAAGACGGTTGTGGTAGTTCCGGGTATTAAGTCTTGATTCGCTTGACGCTGCTG”, 11.1; as for “GATTAATTTCTGCCCTTATTCGCACGTGCCATTACAGTCTTGATTCGCTTGACGCTGCTG”, 9.01.

For the sequence “CCGGGACTTGACCCAACTCTGCCACGTGGGTCGTTTGTCTTGATTCGCTTGACGCTGCTG”, the binding signal (log fluorescence intensity) stood at 8.9.
